In all, about 48,000 compounds went through this assay and about 550 (1.1%) were called active. Inconclusive results (about 4%) are left out. No stated cut-off is given here; in the data, active means potency below about 15 µM; inconclusive means mostly about 16 µM to 33 µM; inactive means weaker than that. This is one part of the list.
target: Lysosomal acid glucosylceramidase (Homo sapiens) (UniProt P04062); assay: Glucocerebrosidase; conditions: purified enzyme, resorufin glucoside fluorescence (screen aimed at inhibitors), 20 min; series mostly up to 77 µM;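 further: the screen sought inhibitors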
How it was run: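 Normal human glucocerebrosidase (0.2 nM final) was assayed with resorufin β-D-glucopyranoside (30 uM final) in 50mM citric acid/KH2PO4, 10mM sodium taurocholate, 0.01% tween-20, pH 5.9. Compounds were titrated; fluorescence (Ex 548, Em 600) read after 20 min at RT.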
Potency means the concentration at half of the fitted maximal effect.

Sequence of UniProt P04062 (P04062 whole entry, looked up): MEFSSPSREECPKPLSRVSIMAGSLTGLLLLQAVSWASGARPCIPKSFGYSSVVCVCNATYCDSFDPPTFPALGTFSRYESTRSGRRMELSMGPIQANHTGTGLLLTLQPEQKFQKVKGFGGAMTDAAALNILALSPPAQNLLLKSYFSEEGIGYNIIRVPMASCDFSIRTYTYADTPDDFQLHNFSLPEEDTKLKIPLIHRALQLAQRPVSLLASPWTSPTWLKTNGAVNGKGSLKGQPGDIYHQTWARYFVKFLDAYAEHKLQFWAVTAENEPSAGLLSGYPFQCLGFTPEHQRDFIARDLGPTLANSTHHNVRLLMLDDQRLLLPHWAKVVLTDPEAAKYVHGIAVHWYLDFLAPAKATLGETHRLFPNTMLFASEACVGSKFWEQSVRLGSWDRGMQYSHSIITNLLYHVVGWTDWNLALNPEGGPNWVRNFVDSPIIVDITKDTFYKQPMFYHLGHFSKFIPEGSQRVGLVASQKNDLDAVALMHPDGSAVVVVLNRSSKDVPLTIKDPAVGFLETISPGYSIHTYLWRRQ

Potency, inactive:
Cc1cnc(C(=O)Nc2ccccc2-n2cccc2)cn1 > 76.9 µM, O=S(=O)(Nc1cccnc1)c1cccc(C(F)(F)F)c1 > 76.9 µM, CCOC(=O)c1ccc(NC(=O)CCc2nc(-c3ccccc3Cl)no2)cc1 > 76.9 µM, Cn1c2c(c3ccccc31)CCSC2=O > 76.9 µM, O=C(CSc1n[nH]c(-c2ccncc2)n1)Nc1ccccn1 > 76.9 µM, O=C(Nc1ccc2c(c1)nc1n2CCCCC1)c1cc(S(=O)(=O)N2CCOCC2)ccc1Cl, CC(=O)c1ccc(OCC(O)CN(C)Cc2cccs2)cc1 (centres undefined) > 76.9 µM, CCn1c(CC(=O)Nc2ccccc2F)nnc1SCC(=O)N1CCN(c2ccccc2)CC1 > 76.9 µM, CC(=O)Nc1cc2c(cc1C(=O)C(C)C)OCCO2 > 76.9 µM, CCOc1ccc(NCC2CCOC(C)(C)C2)cc1 (centres undefined) > 76.9 µM, CCN(CC)C(=O)CSc1nnc(-c2cc3ccccc3cc2O)n1CC > 76.9 µM, CCOc1cc(NC(=O)c2ccco2)c(OCC)cc1NC(=O)COc1ccccc1C > 76.9 µM, CCOC(=O)N1CCN(C(=O)c2nn(-c3cc(OC)cc(OC)c3)c(=O)c3ccccc23)CC1 > 76.9 µM, COCc1cc(C)nc(SCC(=O)Nc2cccc(C)c2C)c1C#N > 76.9 µM, Cc1ccc(SCC(=O)N2CCOCC2)cc1 > 76.9 µM, COc1ccc(N2CCN(S(=O)(=O)c3ccc(C(=O)NCc4ccco4)cc3)CC2)cc1 > 76.9 µM, O=C(CSc1nnc(CCCO)n1-c1ccccc1)Nc1nccs1 > 76.9 µM, N#Cc1cccc(-c2cn(S(=O)(=O)c3ccc(Cl)cc3)nc2N)c1 > 76.9 µM, Cc1ccc(CCNC(=O)C2CCN(S(=O)(=O)c3cccc4nonc34)CC2)cc1 > 76.9 µM, O=C(Nc1cccc(C(F)(F)F)c1)C1CCCN(S(=O)(=O)c2cnc[nH]2)C1 (centres undefined) > 76.9 µM, Cc1ccc(S(=O)(=O)N(C)CC(=O)OCc2nnc(-c3ccccc3)o2)cc1 > 76.9 µM, C[C@H](NC(=O)C1(c2ccccc2)CCN(C(=O)[C@H]2CSCN2C(=O)OC(C)(C)C)CC1)C(=O)O > 76.9 µM, Cc1onc(-c2c(F)cccc2Cl)c1C(=O)N1CCCc2ccccc21 > 76.9 µM, CC(=O)Nc1ccc(S(=O)(=O)N2CCN(C(=O)N3CCCCCC3)CC2)cc1 > 76.9 µM

From PubChem BioAssay AID360 (National Center for Advancing Translational Sciences (NCATS), 2006)
